# The list shows a part of the results.
# B1: Gal 7 (Homo sapiens) (protein)
# chain: MSNVPHKSSLPEGIRPGTVLRIRGLVPPNASRFHVNLLCGEEGGSDAALHFNPRLDTSEVVFNSKEGGSWGREERGPGVPFGRGQPFEVLIIASDDGFKAVVGDAQYHHFRHRLPLARVRLVEVGGDVQLDSVRIF
# What was measured:
# Test in all cases: glycan array binding signal (z-score within array); higher = stronger binding
# Details in all cases: glycan notation: IUPAC condensed, linker removed
# [1] = molecular target: Gal(b1-3)[Fuc(a1-4)]GlcNAc(b1-2)Man(a1-3)[Gal(b1-3)[Fuc(a1-4)]GlcNAc(b1-2)Man(a1-6)]Man(b1-4)GlcNAc(b1-4)[Fuc(a1-6)]GlcNAc
# Summary of the method: (§1)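 The Consortium for Functional Glycomics database supplied 3228 glycan arrays, of which those lacking an available protein sequence were dropped. The binding signal, a within-array Z-score, was averaged across arrays of the same protein sequence and across linkers. Negative scores can be read as non-binding.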
# [2] = molecular target: Gal(b1-3)[Fuc(a1-4)]GlcNAc(b1-3)Gal(b1-3)[Fuc(a1-4)]GlcNAc
# Summary of the method: as §1
# [3] = molecular target: Gal(b1-3)[Fuc(a1-4)]GlcNAc(b1-3)Gal(b1-4)GlcNAc
# Summary of the method: as §1
# [4] = molecular target: Gal(b1-3)[Fuc(a1-4)]GlcNAc(b1-3)Gal(b1-4)[Fuc(a1-3)]GlcNAc
# Summary of the method: as §1
# [5] = molecular target: Gal(b1-3)[Fuc(a1-4)]GlcNAc(b1-6)GalNAc
# Summary of the method: as §1
# [6] = molecular target: Gal(b1-3)[GlcNAc(b1-6)]GalNAc
# Summary of the method: as §1
# [7] = molecular target: Gal(b1-3)[GlcNAc(b1-6)]GlcNAc
# Summary of the method: as §1
# [8] = molecular target: Gal(b1-3)[Neu5Ac(a2-6)]GalNAc
# Summary of the method: as §1
# [9] = molecular target: Gal(b1-3)[Neu5Ac(a2-6)]GlcNAc
# Summary of the method: as §1
# [10] = molecular target: Gal(b1-3)[Neu5Ac(a2-6)]GlcNAc(a1-4)Gal(b1-4)Glc
# Summary of the method: as §1
# [11] = molecular target: Gal(b1-3)[Neu5Ac(a2-6)]GlcNAc(b1-4)Gal(b1-4)Glc
# Summary of the method: as §1
# [12] = molecular target: Gal(b1-3)[Neu5Ac(a2-6)]GlcNAc(b1-6)Gal(b1-4)Glc
# Summary of the method: as §1
# [13] = molecular target: Gal(b1-3)[Neu5Ac(b2-6)]GalNAc
# Summary of the method: as §1
# [14] = molecular target: Gal(b1-3)[Neu5Ac(b2-6)]GlcNAc
# Summary of the method: as §1
# Gal(b1-4)Gal = molecular target: Gal(b1-4)Gal
# Summary of the method: as §1
# [15] = molecular target: Gal(b1-4)GalNAc(a1-3)[Fuc(a1-2)]Gal(b1-4)GlcNAc
# Summary of the method: as §1
# [16] = molecular target: Gal(b1-4)GalNAc(b1-3)[Fuc(a1-2)]Gal(b1-4)GlcNAc
# Summary of the method: as §1
# Gal(b1-4)Glc = molecular target: Gal(b1-4)Glc
# Summary of the method: as §1
# Gal(b1-4)Glc6S = molecular target: Gal(b1-4)Glc6S
# Summary of the method: as §1
# Gal(b1-4)GlcNAc = molecular target: Gal(b1-4)GlcNAc
# Summary of the method: as §1
# [17] = molecular target: Gal(b1-4)GlcNAc(a1-6)Gal(b1-4)GlcNAc
# Summary of the method: as §1
# Gal(b1-4)GlcNAc(b1-2)Man = molecular target: Gal(b1-4)GlcNAc(b1-2)Man
# Summary of the method: as §1
# [18] = molecular target: Gal(b1-4)GlcNAc(b1-2)Man(a1-3)Man(b1-4)GlcNAc(b1-4)GlcNAc
# Summary of the method: as §1
# [19] = molecular target: Gal(b1-4)GlcNAc(b1-2)Man(a1-3)[Gal(b1-4)GlcNAc(b1-2)Man(a1-6)]Man(b1-4)GlcNAc(b1-4)GlcNAc
# Summary of the method: as §1
# [20] = molecular target: Gal(b1-4)GlcNAc(b1-2)Man(a1-3)[Gal(b1-4)GlcNAc(b1-2)Man(a1-6)]Man(b1-4)GlcNAc(b1-4)[Fuc(a1-6)]GlcNAc
# Summary of the method: as §1
# [21] = molecular target: Gal(b1-4)GlcNAc(b1-2)Man(a1-3)[Gal(b1-4)GlcNAc(b1-2)Man(a1-6)][Gal(b1-4)GlcNAc(b1-4)]Man(b1-4)GlcNAc(b1-4)[Fuc(a1-6)]GlcNAc
# Summary of the method: as §1
# [22] = molecular target: Gal(b1-4)GlcNAc(b1-2)Man(a1-3)[Gal(b1-4)GlcNAc(b1-2)Man(a1-6)][GlcNAc(b1-4)]Man(b1-4)GlcNAc(b1-4)[Fuc(a1-6)]GlcNAc
# Summary of the method: as §1
# [23] = molecular target: Gal(b1-4)GlcNAc(b1-2)Man(a1-3)[Gal(b1-4)GlcNAc(b1-2)][GlcNAc(b1-4)]Man(b1-4)GlcNAc(b1-4)GlcNAc
# Summary of the method: as §1
# [24] = molecular target: Gal(b1-4)GlcNAc(b1-2)Man(a1-3)[GlcNAc(b1-2)Man(a1-6)]Man(b1-4)GlcNAc(b1-4)GlcNAc
# Summary of the method: as §1
# [25] = molecular target: Gal(b1-4)GlcNAc(b1-2)Man(a1-3)[GlcNAc(b1-4)][Gal(b1-4)GlcNAc(b1-2)Man(a1-6)]Man(b1-4)GlcNAc(b1-4)GlcNAc
# Summary of the method: as §1
# [26] = molecular target: Gal(b1-4)GlcNAc(b1-2)Man(a1-3)[Man(a1-6)]Man(b1-4)GlcNAc(b1-4)GlcNAc
# Summary of the method: as §1
# [27] = molecular target: Gal(b1-4)GlcNAc(b1-2)Man(a1-6)Man(b1-4)GlcNAc(b1-4)GlcNAc
# Summary of the method: as §1
# [28] = molecular target: Gal(b1-4)GlcNAc(b1-2)Man(a1-6)[GlcNAc(b1-2)Man(a1-3)]Man(b1-4)GlcNAc(b1-4)GlcNAc
# Summary of the method: as §1
# [29] = molecular target: Gal(b1-4)GlcNAc(b1-2)Man(a1-6)[Man(a1-3)]Man(b1-4)GlcNAc(b1-4)GlcNAc
# Summary of the method: as §1
# [30] = molecular target: Gal(b1-4)GlcNAc(b1-2)[Gal(b1-4)GlcNAc(b1-4)]Man(a1-3)[Gal(b1-4)GlcNAc(b1-2)Man(a1-6)]Man(b1-4)GlcNAc(b1-4)GlcNAc
# Summary of the method: as §1
# [31] = molecular target: Gal(b1-4)GlcNAc(b1-2)[Gal(b1-4)GlcNAc(b1-4)]Man(a1-3)[Gal(b1-4)GlcNAc(b1-2)[Gal(b1-4)GlcNAc(b1-6)]Man(a1-6)]Man(b1-4)GlcNAc(b1-4)GlcNAc
# Summary of the method: as §1
# [32] = molecular target: Gal(b1-4)GlcNAc(b1-2)[Gal(b1-4)GlcNAc(b1-4)]Man(a1-3)[GlcNAc(b1-4)][Gal(b1-4)GlcNAc(b1-2)Man(a1-6)]Man(b1-4)GlcNAc(b1-4)GlcNAc
# Summary of the method: as §1
# [33] = molecular target: Gal(b1-4)GlcNAc(b1-2)[Gal(b1-4)GlcNAc(b1-4)]Man(a1-3)[GlcNAc(b1-4)][Gal(b1-4)GlcNAc(b1-2)[Gal(b1-4)GlcNAc(b1-6)]Man(a1-6)]Man(b1-4)GlcNAc(b1-4)GlcNAc
# Summary of the method: as §1
# [34] = molecular target: Gal(b1-4)GlcNAc(b1-2)[Gal(b1-4)GlcNAc(b1-4)]Man(a1-3)[GlcNAc(b1-4)][Gal(b1-4)GlcNAc(b1-2)[Gal(b1-4)GlcNAc(b1-6)]Man(a1-6)]Man(b1-4)GlcNAc(b1-4)[Fuc(a1-6)]GlcNAc
# Summary of the method: as §1
# [35] = molecular target: Gal(b1-4)GlcNAc(b1-2)[Gal(b1-4)GlcNAc(b1-6)]Man(a1-6)[Gal(b1-4)GlcNAc(b1-2)Man(a1-3)]Man(b1-4)GlcNAc(b1-4)GlcNAc
# Summary of the method: as §1
# [36] = molecular target: Gal(b1-4)GlcNAc(b1-2)[Gal(b1-4)GlcNAc(b1-6)]Man(a1-6)[Gal(b1-4)GlcNAc(b1-2)Man(a1-3)]Man(b1-4)GlcNAc(b1-4)[Fuc(a1-6)]GlcNAc
# Summary of the method: as §1
# [37] = molecular target: Gal(b1-4)GlcNAc(b1-2)[Gal(b1-4)GlcNAc(b1-6)]Man(a1-6)[GlcNAc(b1-4)][Gal(b1-4)GlcNAc(b1-2)Man(a1-3)]Man(b1-4)GlcNAc(b1-4)GlcNAc
# Summary of the method: as §1
# [38] = molecular target: Gal(b1-4)GlcNAc(b1-2)[Gal(b1-4)GlcNAc(b1-6)]Man(a1-6)[GlcNAc(b1-4)][Gal(b1-4)GlcNAc(b1-2)[Gal(b1-4)GlcNAc(b1-4)]Man(a1-3)]Man(b1-4)GlcNAc(b1-4)[Fuc(a1-6)]GlcNAc
# Summary of the method: as §1
# [39] = molecular target: Gal(b1-4)GlcNAc(b1-3)Gal(b1-3)GalNAc
# Summary of the method: as §1
# [40] = molecular target: Gal(b1-4)GlcNAc(b1-3)Gal(b1-3)GlcNAc
# Summary of the method: as §1
binder,measurement,setting,value
B1,glycan array binding signal (z-score),[1],0.341
same,glycan array binding signal (z-score),[2],-0.178
same,glycan array binding signal (z-score),[3],0.808
same,glycan array binding signal (z-score),[4],-0.289
same,glycan array binding signal (z-score),[5],-0.063
same,glycan array binding signal (z-score),[6],-0.314
same,glycan array binding signal (z-score),[7],-0.377
same,glycan array binding signal (z-score),[8],-0.266
same,glycan array binding signal (z-score),[9],-0.32
same,glycan array binding signal (z-score),[10],0.731
same,glycan array binding signal (z-score),[11],-0.3
same,glycan array binding signal (z-score),[12],-0.351
same,glycan array binding signal (z-score),[13],-0.34
same,glycan array binding signal (z-score),[14],-0.384
same,glycan array binding signal (z-score),Gal(b1-4)Gal,-0.214
same,glycan array binding signal (z-score),[15],-0.35
same,glycan array binding signal (z-score),[16],-0.367
same,glycan array binding signal (z-score),Gal(b1-4)Glc,0.167
same,glycan array binding signal (z-score),Gal(b1-4)Glc6S,0.576
same,glycan array binding signal (z-score),Gal(b1-4)GlcNAc,-0.218
same,glycan array binding signal (z-score),[17],-0.285
same,glycan array binding signal (z-score),Gal(b1-4)GlcNAc(b1-2)Man,-0.139
same,glycan array binding signal (z-score),[18],-0.314
same,glycan array binding signal (z-score),[19],0.369
same,glycan array binding signal (z-score),[20],-0.017
same,glycan array binding signal (z-score),[21],-0.263
same,glycan array binding signal (z-score),[22],-0.265
same,glycan array binding signal (z-score),[23],0.272
same,glycan array binding signal (z-score),[24],-0.265
same,glycan array binding signal (z-score),[25],-0.275
same,glycan array binding signal (z-score),[26],-0.132
same,glycan array binding signal (z-score),[27],-0.212
same,glycan array binding signal (z-score),[28],-0.289
same,glycan array binding signal (z-score),[29],-0.318
same,glycan array binding signal (z-score),[30],-0.286
same,glycan array binding signal (z-score),[31],-0.115
same,glycan array binding signal (z-score),[32],-0.177
same,glycan array binding signal (z-score),[33],0.026
same,glycan array binding signal (z-score),[34],-0.127
same,glycan array binding signal (z-score),[35],0.052
same,glycan array binding signal (z-score),[36],0.141
same,glycan array binding signal (z-score),[37],-0.186
same,glycan array binding signal (z-score),[38],-0.258
same,glycan array binding signal (z-score),[39],-0.259
same,glycan array binding signal (z-score),[40],-0.06

# Reference: the supplement of paper PMC8728848
